Data on 56 variants can be found in the RNAGym collection of RNA variant scans (doi:10.7554/elife.90254).

Read counts are not given, so values of variants with three or more changes are uncertain.

B1: LINE1-mini (parent)
chain: GGCAGAGCUCAACACAGCGUGGCAAAGUGGCUGUGGCUAGACUGCC

This data set covers variants of B1. Kind of data set: self-cleavage, relative activity (ratio to wild type); higher = more cleavage; in vitro, sequencing; the parent is a self-cleaving ribozyme.
As for GGCAGAGCUCAAAACAGAGUAGCAAAGUGGAUGUGGCUAGACUGCC, the self-cleavage came to 0.01.

GGCAGUGCUCAACACAACGUGGCAAAGUGGCUGUGGCUAGAUUGCC: the self-cleavage was determined as 0.01.

As for GGCCGAGCUCAACACAGCGUGGGAGAGGAGCGGUGGCUAGACGGUC, the self-cleavage is 0.

On to GGCAGAGCUCAACAUAGCGUGGAAAAGAGGCUGUGGCUAGACUGGC, for which the self-cleavage came to 0.21.

In the case of UGCAGGGUCCAACACAGCGUGGCAAAGUGGCUGUGGCUAGACUGCC, the self-cleavage was found to be 0.

For GAUAGAGCUCAACACUGCAUGGCAAAGUGGCUGUGGCUAGACUGCC, the self-cleavage worked out at 0.24.

On to GAAAGAGCUCAACACAGCGUGACAAAGUGGCUGUGGAUAGACUGCC, for which the self-cleavage was 1.18.

Take GGCAGAGCACAACACAGCGUGGCAGAGUGGCUGUGGCUAUACUGCC: the self-cleavage stood at 0.37.

Turning to GGCAGAUCUCAAAACAGCGUGGCAAAGUGGCUCUGGUUAGACUGCC, the self-cleavage came out at 0.05.

For GGCAGAACUCAACACACCGUGGCAAAGUUGCUGUGGCUAGACUGCC, the self-cleavage was found to be 0.83.

Regarding GGCAGAACUCAAGACAGCAUGGCAAAGUGGCUGUGGCUAGGCUGCA, the self-cleavage came out at 0.15.

With GGCAGAGCUCAACAAAGCGUGGCAAAGUGCCUGUGACUAGACUGCC, the self-cleavage was 0.02.

With GGCAGAGCUCAACACAUGGUGGCAAAGUGGCUAUGGCUAGAGUUCC, the self-cleavage was found to be 0.05.

Regarding GGCAUAGCUGAACACAGCGUGGCAAAAUGGGUGUGGCUAGAAUUUC, the self-cleavage was 0.01.

With GGCAGAGCUCAACACGGCGUGGCAAAGUGGCUGUGGCUAGACCGUC, the self-cleavage was 0.02.

As for GGCUGAGCUCAACACAGCGUUACAAAAUUGCUGUGGCUAGACUGCC, the self-cleavage was determined as 0.84.

Take GACAGAGCUCAAUACAGAGAGGCAAAGUGGCUGUGGUUAGACUGCC: the self-cleavage is 0.05.

Consider GGCAGGGCUCAACACAGCGUGGCACAGUGGCUGUGGCUAGAGUGAC, for which the self-cleavage was 0.02.

On to GGCAGAGCUCAACCUACCGUGGCAGAGUGGCUGUGGCUAGACUGCC, for which the self-cleavage turned out to be 0.

For GGCAGAGCUCAACACAGCGUGGCAAGGUGGCUAUGGCUAGACUACC, the self-cleavage is 0.05.

Regarding GGCAGAGCUCAGCACAGCGUGGCAAACUGGCUGUGGUUAGACUGCC, the self-cleavage was determined as 0.01.

In the case of GGCAGAGCUCCACACAGUGUGGCAAAGUGGCUGUGGCUAGAGUGCC, the self-cleavage was 0.01.

Consider GGCAGUGCUCAACACAGCGUGGCAAAGUGGCUGUGGGUAGACUGCU, for which the self-cleavage amounted to 0.01.

Take GGCAGAGCUCAACACAGCGUGGCAAAGUGGCUGUGGAGAGCCUUCC: the self-cleavage amounted to 0.02.

With GGGAGAGCUCAACACAGCGUGGCAAAAUGGCUGUGGCUAGACUUCC, the self-cleavage was found to be 1.17.

On to UGCAGAGCUCAUCACAGCGUGGCAAAGUGGCUGUGGAUAGACUCCC, for which the self-cleavage amounted to 0.

Turning to GGCAGAGCUCAACACAGAGUGGCCAUGUGGCUGUGGCUAGACUGCU, the self-cleavage is 0.1.

Take GGCAGAGCUCAACCCACCGUGGCUAAGAGGCUGUGGCUUGACUGCC: the self-cleavage was determined as 0.02.

GGCAGACCUCAACACAGCGUGGCGAAGUAGCUGUGGCUAAACUGCC: the self-cleavage turned out to be 0.08.

With GGCAGAGCGCAACACAGCGUGGCAAAGUGGCUGUCGCCAGAAUGGC, the self-cleavage came out at 0.01.

Take GGCAGAGCUCGACACAGCGUGGCAAAGUGGCUGUCGUUAUACUGCC: the self-cleavage is 0.

Turning to GGCCGAGCACAAAACAGCGUGGCAAAGUGGCUGUGGCUUAACUGCC, the self-cleavage was found to be 0.2.

As for GGCAAGGCUCAACACAGCGUGGCAAAGUGGCUGUGGCUAUACUGCC, the self-cleavage turned out to be 0.22.

CGUAGAGCUCAACACAGCGUCUCAAAGUGUCUGUGGCUAGACUGCC: the self-cleavage was found to be 0.05.

As to GGCAGAGCUCAACACAGCGUGGCAAAACGCCUGUUGCUAGAUUGCC, the self-cleavage is 0.05.

As to GGCAGAGCUCAACACAGCGUGGAAAAGUGGCGGUGGCUAGAUUGGC, the self-cleavage was 0.11.

Regarding GGCAGAGCUCAACACAGCGUGGCAAAGUCGCUGUGGCUAGACGUCC, the self-cleavage was determined as 0.04.

As to GGCAGAGCUCAACACAGCGUGGCAAAGGGGCUGUGUAUAGACAGCC, the self-cleavage came to 0.12.

For GGCCGAGCUCAACACAGCGUGGCAUCGUGGCUGUGGCUAGACUGCC, the self-cleavage was 0.03.

Regarding GGAAGAGCUCAAGAAAGAGUGGCAAAGUGGCUGUGGCUAGACCGCC, the self-cleavage amounted to 0.08.

For CGCAGAGCUCAACACAGUGUUCCAAAGUGACUGUGGUUAGACUGCC, the self-cleavage was 0.03.

In the case of GGCAGAGCUCAACAGAUCGUCGCAAAGUGAAUGUGGCUAGACUGCC, the self-cleavage was 0.06.

On to GGCAGAUCUCAACACCGCGGGGCAAAGUGGCUCUGGCUAGACUGCC, for which the self-cleavage turned out to be 0.02.

GGCAGAGCUCAACACAGCGUAGCAUAGUGGCUGUGGCUAGACUGCU: the self-cleavage was determined as 1.88.

In the case of GGCAGAUCUCAACAGAGUGUGGCAAAGUGGCUGUGGCUAUACUGCC, the self-cleavage is 0.12.

Take UGCAGGGCUCCACACAGCGUGGCAAAGUGGCUGUAGCUAGACUGCC: the self-cleavage worked out at 0.02.

GGCAGAGCUCAACACAGCGUGGCAAAGUGUCUAUCGCUAGACUGCC: the self-cleavage came to 0.07.

In the case of GGCAGCGCUCAAAACAGCAUGGCAAAGUGGCUGUGGCUACCCUGCC, the self-cleavage amounted to 0.07.

On to GGCAGCGCACAACACAGCGUGGCUAAGUGGCUUUGACUAGACUGCC, for which the self-cleavage is 0.09.

Consider GGAACAGCUCAACAAAGCGUGGCAAAGUGGCUGUGGCUAGACUGAC, for which the self-cleavage amounted to 0.09.

Consider GGCAUAGCUCAACACAGCGGGGCUAAGUGGCUGUGGUUAGACUGCC, for which the self-cleavage is 0.02.

For the variant GGCAGACAUCAAGCCAGCGUGGCAAAGUGGCUGUGGCUAGACUGCC, the self-cleavage was 0.15.

As for GAAAGAGCUCAACACAGUGUGGCAAAGUGGCAGUGGCUAGACUGCC, the self-cleavage was 1.16.

With GGCAGUGGUCAACACAGCAUGGCAAAGUGGCUGUGGCUAGACUGUC, the self-cleavage was found to be 0.78.

In the case of GGAAGAGCUCAACCCAGCAUGGCAAACUGGCAGUGGCUAGACUGCG, the self-cleavage was determined as 0.04.

On to GGCAAAGAUCCACUCAGCGUGGUAAAGUGGCUGUGGUUGGACUGCC, for which the self-cleavage is 0.
